According to paper PMC4336329 (PLoS ONE, 2015):
The campaign covered roughly 310,000 compounds. About 14,000 (4.5%) showed an effect of 50% or more. The effect is printed as a negative number. This is one part of the list.

target: human ether-à-go-go-related gene (hERG) potassium channel (human, UniProt Q12809); test: primary screen, population patch clamp on CHO cells stably expressing hERG
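Also: peak tail current of the secondary pulse compared with the same well before compound.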

human ether-à-go-go-related gene (hERG) potassium channel, sequence (Q12809 whole entry, looked up): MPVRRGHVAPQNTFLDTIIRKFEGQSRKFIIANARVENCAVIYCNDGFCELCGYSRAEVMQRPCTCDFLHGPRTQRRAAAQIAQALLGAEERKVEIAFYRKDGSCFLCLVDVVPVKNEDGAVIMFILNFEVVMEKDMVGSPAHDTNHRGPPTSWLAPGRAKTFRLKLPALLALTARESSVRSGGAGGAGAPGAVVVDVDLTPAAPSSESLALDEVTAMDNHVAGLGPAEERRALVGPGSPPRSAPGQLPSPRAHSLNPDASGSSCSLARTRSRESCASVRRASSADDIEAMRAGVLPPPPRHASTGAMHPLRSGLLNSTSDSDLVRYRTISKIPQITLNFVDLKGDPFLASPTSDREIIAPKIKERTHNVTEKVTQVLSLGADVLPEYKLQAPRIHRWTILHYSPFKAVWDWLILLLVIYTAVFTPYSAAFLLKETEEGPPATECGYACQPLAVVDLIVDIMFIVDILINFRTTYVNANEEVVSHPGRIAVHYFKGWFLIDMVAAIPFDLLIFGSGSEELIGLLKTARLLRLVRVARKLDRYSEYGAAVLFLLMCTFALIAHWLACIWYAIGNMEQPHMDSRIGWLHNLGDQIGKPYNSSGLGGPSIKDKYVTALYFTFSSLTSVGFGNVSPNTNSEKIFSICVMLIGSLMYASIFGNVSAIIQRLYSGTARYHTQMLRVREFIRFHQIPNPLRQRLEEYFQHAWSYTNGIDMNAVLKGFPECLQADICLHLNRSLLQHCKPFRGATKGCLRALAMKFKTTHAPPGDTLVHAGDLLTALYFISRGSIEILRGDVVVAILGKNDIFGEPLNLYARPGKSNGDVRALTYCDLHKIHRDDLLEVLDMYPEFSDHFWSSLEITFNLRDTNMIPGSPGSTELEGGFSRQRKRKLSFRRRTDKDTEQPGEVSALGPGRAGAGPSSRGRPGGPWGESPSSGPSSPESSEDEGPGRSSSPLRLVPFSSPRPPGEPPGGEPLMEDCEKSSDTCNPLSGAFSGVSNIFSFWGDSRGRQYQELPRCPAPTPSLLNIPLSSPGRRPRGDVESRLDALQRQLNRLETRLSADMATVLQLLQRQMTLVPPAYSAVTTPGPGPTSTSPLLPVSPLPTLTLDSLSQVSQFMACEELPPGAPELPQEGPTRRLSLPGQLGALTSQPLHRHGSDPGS

| Structure (SMILES) | hERG current change (%, negative = inhibition) at 10uM [%] |
| --- | --- |
| Oc1ccc(Br)cc1/C=N/n1c(-c2ccccc2)n[nH]c1=S | 12 |
| CCC(=O)Nc1nnc(CSCc2ccc(F)cc2)s1 | 1.49 |
| CS(=O)(=O)N(CC(=O)NCCSC1CCCCC1)c1ccccc1 | 5.01 |
| O=c1c2ccccc2nc(/C=C/c2c[nH]c3ccccc23)n1-c1ccc([N+](=O)[O-])cc1 | 16.2 |
| O=C(CCc1nnc(COc2ccccc2)o1)NCCc1cccs1 | 16.2 |
| COc1ccc(NC(=O)c2ccc(NC(=O)COC(=O)CC(NC(=O)c3ccccc3Cl)c3ccccc3)cc2)cc1 (centres unmarked) | -2.55 |
| COc1cccc(C2/C(=C(\O)c3ccc4c(c3)OCCO4)C(=O)C(=O)N2CCCn2ccnc2)c1 (centres unmarked) | 2.41 |
| COc1ccc(CN2CCNCC2)c(OC)c1OC | 9.67 |
| O=C(O)CCC(=O)N1CN2CN(C(=O)CCC(=O)O)CC([N+](=O)[O-])(C2)C1 | 14.8 |
| COc1ccc(NS(=O)(=O)c2cc(NC(=O)Cn3cnc4c3c(=O)n(C)c(=O)n4C)ccc2C)cc1 | -10.5 |
| CC1=C(C(=O)OCc2ccc3c(c2)OCO3)C(c2ccc(O)c([N+](=O)[O-])c2)NC(=O)N1 (centres unmarked) | 8.45 |
| O=C(NCc1ccco1)C(=O)NCC1OCCCN1S(=O)(=O)c1ccccc1 (centres unmarked) | 17.4 |
| Nc1c(-c2ccc(Cl)cc2)cnn1-c1cccc([N+](=O)[O-])c1 | 5.91 |
| O=[N+]([O-])c1cc(-c2cnc3ccccc3n2)ccc1Cl | 0.838 |
| CCCSc1nc(O)c(CC)c(=O)n1C(C)CC (centres unmarked) | -0.121 |
| Clc1ccc(CN2CCN(c3ncccn3)CC2)cc1 | -4.03 |
| O=C(Nc1ccccc1)C1CCN(C(=O)c2ccco2)CC1 | 7.85 |
| CCOc1cc(C2NC(=O)c3ccccc3O2)ccc1OC(C)C (centres unmarked) | 10.1 |
| FC(F)(F)c1cnc(N2CCN(C(=S)NCc3ccccc3)CC2)c(Cl)c1 | -11.3 |
| CC1=NN(c2nc(-c3ccc(C)cc3)cs2)C(=O)C1N=Nc1cccc(O)c1 (centres unmarked) | 7.93 |
| COC(=O)c1ccc(OCCn2cnc3ccccc3c2=O)cc1 | -11.2 |
| FC(F)(F)c1cc(Nc2ccccc2)nc(-c2ccccn2)n1 | 12.2 |

| Structure (SMILES) | hERG current change (%, negative = inhibition) at 10uM [%] |
| --- | --- |
| NC(=O)c1oc2ccccc2c1NC(=O)CS(=O)(=O)c1ccccc1 | 6.49 |
| Cc1ccc(NC(=O)CSc2nc(NS(=O)(=O)c3ccccc3)cc(=O)[nH]2)cc1 | 8.75 |
| C/C(=N/Nc1ccnc2cc(Cl)ccc12)c1ccc(O)cc1 | -6.2 |
| CCCc1nc2c(ccc3ccccc32)cc1CC | 7.5 |
| COc1ccc(-c2csc(C3=C(O)CN(Cc4ccc(S(N)(=O)=O)cc4)C3=N)n2)cc1OC | -10.7 |
| C=CCNC(=O)COC(=O)c1ccc(Cl)c(S(=O)(=O)N(Cc2ccccc2)c2ccccc2)c1 | -0.708 |
| CCOc1ccc(NC(=O)c2ccc(NC(=O)COC(=O)Cc3ccc(OC)cc3)cc2)cc1 | 20 |
| COc1ccccc1C(CNC(=O)CCNC(=O)c1ccccc1Cl)N1CCCC1 (centres unmarked) | -6.32 |
| Cc1ccc(-c2nc3cc(N)ccc3o2)c(C)c1 | 11.6 |
| COc1ccc(C(c2c(O)cc(C)oc2=O)c2c(O)cc(C)oc2=O)cc1 | 4.88 |
| CC1Oc2ccccc2N(Cc2ccccc2F)C1=O (centres unmarked) | -9.36 |
| CC(C)N1CC(C(=O)Nc2ccc(Cl)c([N+](=O)[O-])c2)CC1=O (centres unmarked) | 7.99 |
| Cc1ccccc1OCC(=O)NCCNC(=O)c1ccncc1 | 8.43 |
| O=C(C1CC1)N1CCc2cc(S(=O)(=O)N3CCN(c4ccccc4)CC3)ccc21 | 15.8 |
| COc1ccccc1NC(=O)C(C)OC(=O)C1COc2ccccc2O1 (centres unmarked) | 3.67 |
| O=C(NCc1cccc(Cl)c1)c1cccc(S(=O)(=O)N2CCCC2)c1 | -15.3 |
| OCc1ccnc2oc3ccccc3c12 | 9.87 |
| C=CC(C)n1c(Br)nc2c1c(=O)[nH]c(=O)n2C (centres unmarked) | -8.53 |
| O=C(CCCN1C(=O)c2ccccc2C1=O)N1CCN(c2ccccn2)CC1 | -25.9 |
| O=C1OCCC1Sc1nc2cc(Cl)ccc2n1Cc1ccccc1 (centres unmarked) | -63.9 |
| COCCNC(=O)/C(C#N)=c1\s/c(=C\c2ccccc2OC(F)F)c(=O)n1Cc1ccccc1 | 11.8 |
| Cc1ccc(OCCC(=O)OCC(=O)Nc2ccc(F)cc2)cc1 | 20.2 |

| Structure (SMILES) | hERG current change (%, negative = inhibition) at 10uM [%] |
| --- | --- |
| Cc1cc(C)c2[nH]c(=O)c(C(c3nnnn3C(C)(C)C)N3CCN(C(=O)c4ccco4)CC3)cc2c1 (centres unmarked) | -47 |
| Clc1ccc(-c2ccccc2)nn1 | 3.33 |
| O=[N+]([O-])c1ccc(O)c(/C=N/Nc2ccc(Cl)nn2)c1 | 20.2 |
| CN(C(=O)COC(=O)CSc1ccc(C(N)=O)cc1[N+](=O)[O-])C1CCCCC1 | -4.6 |
| CN(C)CCNC(=O)COc1cccc2c1OC(C)(C)C2 | 59.4 |
| COc1ccc(C2Nc3ccccc3C(=O)N2c2ccc(Cl)cc2)cc1Cn1cc([N+](=O)[O-])cn1 (centres unmarked) | -11.1 |
| Cc1ccc(C(=O)NCCCn2ccnc2)cc1C | 8.83 |
| CCOCCn1c(CN2CCN(c3cccc(Cl)c3)CC2)nc2c1c(=O)n(C)c(=O)n2C | -55 |
| CCOc1ccccc1N1CC(C(=O)NCCOc2ccccc2OC)CC1=O (centres unmarked) | -6.01 |
| COc1ccc(Nc2nc(N)c([N+](=O)[O-])c(N3CCCC3)n2)cc1 | -22.8 |
| Cc1ccc(S(=O)c2ccc(NC(=O)C3CC3)cc2C#N)cc1 (centres unmarked) | -20.9 |
| CC(C)n1c(=N)c(C(=O)NCCc2ccccc2)cc2c(=O)n3ccccc3nc21 | -75.1 |
| O=C(CSc1nnc(Cn2c(=O)sc3ccccc32)n1-c1ccccc1)Nc1nccs1 | -3.47 |
| Cc1ccc(N(C)S(=O)(=O)c2ccc3[nH]cc(C(=O)NCCCN4CCOCC4)c(=O)c3c2)cc1C | -16.5 |
| C=C(C)c1cccc(C(C)(C)NC(=O)N(Cc2ccccc2)Cc2ccco2)c1 | 6.19 |
| Cc1ccc(Cn2ccc(NC(=O)c3cc(-c4ccccc4)on3)n2)cc1 | 5.75 |
| COc1c2ccoc2c(OC[C@@H](O)C(C)(C)OC)c2oc(=O)ccc12 | 10.6 |
| CCN1C(=O)S/C(=C/c2c(OCc3ccc(C(=O)O)cc3)ccc3ccccc23)C1=O | 8.07 |
| Cc1cc(OCC(=O)NCCc2c[nH]c3ccccc23)c2c(C)cc(=O)oc2c1 | 9.39 |
| COC(=O)c1sccc1NC(=O)/C=C/C(=O)O | 16.1 |
| COc1ccccc1CNC(=O)c1cc2ccccc2oc1=O | 0.373 |
| Cc1ccc(S(=O)(=O)n2cnc(C)c2)cc1 | 0.762 |

| Structure (SMILES) | hERG current change (%, negative = inhibition) at 10uM [%] |
| --- | --- |
| CCOC(=O)c1c(NC(=O)CSc2nnnn2-c2ccc(OC)cc2)sc(C)c1C | 12.9 |
| O=C(COC(=O)c1ccccn1)Nc1cccc(Cl)c1 | 13.9 |
| COc1ccc(NS(=O)(=O)c2ccc(NC(C)=O)cc2)c(OC)c1 | 0.195 |
| O=C(NCc1ccccc1)C1=C[C@H](c2ccc(Br)cc2)C[C@H](OCCCCO)O1 | -9.7 |
| CCc1ccccc1NC(=S)N(CCN1CCCCCC1)Cc1ccco1 | -46.8 |
| CCOc1ccc(N2C(=O)CC(Sc3nc(C)cc(C)n3)C2=O)cc1 (centres unmarked) | -6.96 |
| CC(C)Cc1nc2n[nH]c(N)c2c2c1CCC2 | -3.89 |
| N#Cc1ccc(OCC(=O)OCC(=O)Nc2cc(C(F)(F)F)ccc2N2CCOCC2)cc1 | -57.7 |
| CC(OC(=O)c1ccc(Cl)nc1)C(=O)NC1CCCC1 (centres unmarked) | 12.2 |
| N#Cc1c(NC(=O)C2CC(c3c(F)cccc3Cl)=NO2)sc2c1CCC2 (centres unmarked) | -17.2 |
| COc1ccc(NC(=O)Nc2cccc(Cl)c2Cl)c(OC)n1 | 3.16 |
| C#CC[N+](C)(C)CCCCCCCCCCCC.[Br-] | -50.7 |
| O=C(O)c1ccc(N2N=C(c3ccccc3)CC2c2ccccc2)cc1 (centres unmarked) | 28 |
| O=C(N/N=C\c1c(F)c(F)c(F)c(F)c1F)c1ccc(-c2ccccc2)cc1 | 5.34 |
| COc1ccc(NC(=O)C2CCN(C(=O)[C@@H]3Cc4ccccc4CN3C(=O)OC(C)(C)C)CC2)cc1 | 2.02 |
| C[C@@]12C(=O)OC(=O)[C@]1(C)C1CCC2O1 | 14.1 |
| O=C(CN1CCCCCC1)Nc1ccc(S(=O)(=O)N2CCOCC2)cc1 | 11.9 |
| COc1ccc(CCNC(=O)COc2ccc(-c3ccccc3)cc2)cc1OC | -16.8 |
| Cc1cccnc1NC(=O)C1CCN(S(=O)(=O)c2c(C)noc2/C=C/c2ccco2)CC1 | -8.08 |
| CSc1sc(C(=O)NC(=O)NCc2ccncc2)c(C)c1-c1ccon1 | -15.8 |
